# From PubChem BioAssay AID1460 (National Center for Advancing Translational Sciences (NCATS), 2008)
# Out of some 270,000 compounds screened, about 5,800 (2.1%) were called active. The inconclusive results got no clear call from the source; some entries with a clear call stand among them for comparison. The call rests on the fitted dose curve; in most records, active means well fitted inhibition curve with a large enough effect; inconclusive means small, poorly fitted or top-dose-only effect; inactive means flat fitted curve, though single readings scatter. Potencies of inconclusive entries are doubtful fits and often do not repeat.
# Target: Microtubule-associated protein tau (Homo sapiens) (UniProt P10636)
# Test: qHTS for Inhibitors of Tau Fibril Formation, Thioflavin T Binding; further: nearly all actives have a fitted effect of over 55% in size
# Details: recombinant tau K18 P301L (four-repeat tau fragment), heparin-induced fibrillization, ThT fluorescence; series mostly up to 57.4 µM
# Procedure, shortened: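 K18 P301L tau (15 uM + 0.24 uM Alexa 594-tagged), heparin 20 uM, NaOAc pH 7, 6 h 37 C; ThT 30 uM, 1 h RT, ex 450/em 510 nm.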
# Potency means the concentration at half of the fitted maximal effect; tags describe the fitted curve by direction and shape.
# Sequence of UniProt P10636 (P10636 whole entry, looked up): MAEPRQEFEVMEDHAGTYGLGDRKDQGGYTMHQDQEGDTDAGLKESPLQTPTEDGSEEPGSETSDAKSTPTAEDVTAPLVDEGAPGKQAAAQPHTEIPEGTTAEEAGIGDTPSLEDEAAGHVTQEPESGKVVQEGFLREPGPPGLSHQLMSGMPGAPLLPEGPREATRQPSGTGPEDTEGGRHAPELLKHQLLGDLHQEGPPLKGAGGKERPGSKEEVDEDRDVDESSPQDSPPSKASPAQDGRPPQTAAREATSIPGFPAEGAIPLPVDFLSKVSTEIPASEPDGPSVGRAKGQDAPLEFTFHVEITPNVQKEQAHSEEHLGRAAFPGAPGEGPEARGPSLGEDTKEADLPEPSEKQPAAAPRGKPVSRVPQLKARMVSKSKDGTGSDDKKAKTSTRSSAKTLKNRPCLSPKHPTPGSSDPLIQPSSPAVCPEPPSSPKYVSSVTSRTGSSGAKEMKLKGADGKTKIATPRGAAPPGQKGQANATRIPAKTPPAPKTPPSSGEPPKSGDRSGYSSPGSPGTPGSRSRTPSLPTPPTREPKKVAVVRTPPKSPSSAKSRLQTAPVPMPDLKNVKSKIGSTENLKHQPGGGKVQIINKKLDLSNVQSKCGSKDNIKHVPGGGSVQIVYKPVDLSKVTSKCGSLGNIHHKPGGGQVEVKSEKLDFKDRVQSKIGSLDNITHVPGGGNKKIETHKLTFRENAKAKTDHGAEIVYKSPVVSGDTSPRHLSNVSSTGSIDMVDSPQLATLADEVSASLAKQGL
row,Structure (SMILES),Potency
1,CCOC(=O)c1c(NC(=O)CSc2nc(-c3ccccc3)cc(C(F)(F)F)n2)sc(C)c1C,"inconclusive: 22.4 µM [inhibitor, single point]"
2,c1ccc(-c2n[nH]c(-c3ccccc3)c2-c2nc3ccccc3[nH]2)cc1,inactive
3,Cn1cc(CCCC(=O)NCc2ccccc2Cl)c2ccccc21,inactive
4,O=S(=O)(c1cccc(F)c1)N1CCN(C(=S)NCc2ccccc2)CC1,inactive
5,O=C(COC(=O)[C@H](Cc1ccccc1)NC(=O)c1ccco1)NC(c1ccccc1)c1ccccc1,inactive
6,CCOc1ccc(CCNC(=O)Cn2nnc(-c3ccc(C(F)(F)F)cc3)n2)cc1OCC,inactive
7,CCCCn1c(NC(=O)c2ccc(Br)o2)c(S(=O)(=O)c2ccccc2)c2nc3ccccc3nc21,active: 17.8 µM
8,CCOC(=O)N1CCN(C(=O)Nc2cccc3ccccc23)CC1,inactive
9,COc1ccc(S(=O)(=O)N2CCN(c3ccc4nnc(-c5ccccc5)n4n3)CC2)cc1,"inconclusive: 39.8 µM [inhibitor, single point]"
10,COc1ccc(-c2nc(N=Nc3ccc(O)cc3)n[nH]2)cc1,active: 2.82 µM
11,Brc1ccccc1OCCOCCOc1cccc2cccnc12,"inconclusive: 31.6 µM [inhibitor, single point]"
12,Cc1cc(C(=O)Nc2ccc(N3CCOCC3)c(Cl)c2)c(C)o1,"inconclusive: 15.8 µM [inhibitor, partial curve]"
13,Cc1ccsc1C(=O)N/N=C/c1ccc([N+](=O)[O-])cc1,"inconclusive: 12.6 µM [inhibitor, partial curve]"
14,c1coc(CN(Cc2ccco2)c2ncnc3c2oc2ccccc23)c1,"inconclusive: 17.8 µM [inhibitor, partial curve]"
15,O=C(COC(=O)Cc1ccsc1)Nc1ccc(Cl)c(S(=O)(=O)N2CCOCC2)c1,inactive
16,c1ccc2sc(NN=C3CCCCCC3)nc2c1,"inconclusive: 17.8 µM [inhibitor, single point]"
17,CCc1cc[n+](-c2nc3ccccc3nc2C(=C=[N-])C#N)cc1,"inconclusive: 22.4 µM [inhibitor, partial curve]"
18,CCNc1nc(SCCOc2ccc(C)cc2)nc(N(C)C)n1,"inconclusive: 25.1 µM [inhibitor, partial curve, poor fit]"
19,CC(=O)CSc1nsc(SCC(C)=O)c1C#N,active: 15.8 µM
20,c1ccc(-c2ccc(-c3nc(-c4ccccn4)no3)cc2)cc1,"inconclusive: 0.631 µM [inhibitor, full curve]"
21,CCN1C(=O)/C(=c2\o/c(=C3\C=Cc4ccccc4N3CC)c(=O)n2CC)SC1=S,"inconclusive: 3.16 µM [inhibitor, full curve]"
22,N#Cc1nc(-c2ccco2)oc1N1CCC(C(N)=O)CC1,inactive
23,COc1ccc(CCNC(=O)c2ccc3[nH]c(C)c(C)c3c2)cc1OC,"inconclusive: 8.91 µM [inhibitor, partial curve]"

row,Structure (SMILES),Potency
1,CCc1c(C)sc(NC(=O)c2cc(-c3ccc(OC)c(OC)c3)on2)c1C#N,"inconclusive: 0.0562 µM [inhibitor, full curve, poor fit]"
2,O=S(=O)(NCC(c1ccco1)N1CCN(c2ccc(F)cc2)CC1)c1cc(F)ccc1F (centres undefined),inactive
3,CCCCS/C(=C(/C#N)C(N)=O)c1cc2c([nH]1)CCCC2,"inconclusive: 15.8 µM [inhibitor, partial curve]"
4,CCCN1CCc2c(sc(NC(=S)NC(=O)c3ccccc3)c2C#N)C1,active: 15.8 µM
5,COc1ccc(NC(=O)NC2CCCCC2C)cc1 (centres undefined),inactive
6,COc1ccc(-c2nnc(SCC(=O)N3CCN(c4ccccc4)CC3)o2)cc1OC,"inconclusive: 3.98 µM [inhibitor, partial curve]"
7,O=C(Nc1cnc2ccccc2c1)C1COc2ccccc2O1 (centres undefined),"inconclusive: 15.8 µM [inhibitor, single point]"
8,C#CCOCCOCCOCCNc1nc(N2CCN(C(=O)[C@H](CCCCN)n3cc([C@@H](N)C(C)CC)nn3)CC2)nc(N2CCN(C(=O)[C@H](Cc3cc4ccccc4[nH]3)n3cc([C@@H](N)CC(C)C)nn3)CC2)n1 (some centres undefined),"inconclusive: 25.1 µM [inhibitor, single point]"
9,NNc1nnc2c3cc(F)ccc3n(Cc3ccccc3)c2n1,"inconclusive: 15.8 µM [inhibitor, partial curve]"
10,CN(C)S(=O)(=O)c1cccc(C(=O)OCC(=O)Nc2sccc2C(N)=O)c1,"inconclusive: 44.7 µM [inhibitor, single point]"
11,O=[N+]([O-])c1ccc(N/N=C2/CCCCC2c2ccccn2)c([N+](=O)[O-])c1 (centres undefined),"inconclusive: 20 µM [inhibitor, partial curve]"
12,COc1ccc(CN(CCC(c2ccccc2)c2ccco2)C(=O)c2ccco2)cc1 (centres undefined),"inconclusive: 28.2 µM [inhibitor, single point]"
13,CCOC(=O)c1c[nH]c2c3c(ccc2c1=O)CCCC3,"inconclusive: 12.6 µM [inhibitor, partial curve]"
14,Cc1cc2oc(C(=O)Nc3sc4c(c3C(=O)NCC3CCCO3)CCCC4)cc(=O)c2cc1C (centres undefined),"inconclusive: 2 µM [inhibitor, partial curve]"
15,Oc1ccccc1-c1cc(-c2ccc3c(c2)OCCO3)n[nH]1,"inconclusive: 39.8 µM [activator, single point]"
16,CN1CCN(/N=C/c2ccc(-c3ccccc3)cc2)CC1,"inconclusive: 7.08 µM [inhibitor, partial curve, poor fit]"
17,O=C(N/N=C\c1ccc(OC(=O)c2ccco2)cc1)c1ccc(Cl)cc1,"inconclusive: 0.708 µM [inhibitor, full curve, poor fit]"
18,CCC(=O)N1CCN(c2ccc(NC(=S)NC(=O)COc3ccccc3)cc2)CC1,"inconclusive: 2.24 µM [inhibitor, partial curve]"
19,Cc1cccc(NC(=O)Cn2c(O)c(N=NC(N)=S)c3ccccc32)c1,"inconclusive: 8.91 µM [inhibitor, partial curve]"
20,O=[N+]([O-])c1ccc(/C=N/Nc2ncc(-c3ccccc3)cn2)cc1,"inconclusive: 1 µM [inhibitor, full curve]"
21,CC1(C(=O)OCC(=O)Nc2ccc3ccccc3c2)CC1(Cl)Cl (centres undefined),inactive
22,CN(C)CCCCOc1cccc(Br)c1,"inconclusive: 39.8 µM [inhibitor, single point]"
23,COC(=O)c1ccc2c(c1)N(CC(=O)Nc1ccc(C)c(C)c1)C(=O)c1ccccc1S2,inactive

row,Structure (SMILES),Potency
1,O=[N+]([O-])c1cccc(-c2nnc3c4ccccc4c4ccccc4n23)c1,inactive
2,CCC1Oc2ccccc2N(CC(=O)NCc2ccccc2)C1=O (centres undefined),inactive
3,CCNC(=O)c1ccccc1-c1nc(-c2ccccc2)no1,inactive
4,Cc1cc(Nc2cccc(Cl)c2)nc2ccc(NC(=O)Cc3c(F)cccc3Cl)cc12,"inconclusive: 15.8 µM [inhibitor, partial curve]"
5,CCC(=O)N1CCN(c2ccc(NC(=O)COc3ccccc3Cl)cc2)CC1,"inconclusive: 5.01 µM [inhibitor, partial curve]"
6,CCS(=O)(=O)N1CCC2(CC1)OC(=O)C(C)=C2C(=O)NCc1ccc(OC)c(OC)c1,inactive
7,Cc1cccc(NCCC(=O)c2ccc([N+](=O)[O-])cc2)c1C,"inconclusive: 6.31 µM [inhibitor, partial curve]"
8,NC(=O)CC(NC(=O)Cc1cccc2ccccc12)c1ccc(NCCc2ccccc2F)c([N+](=O)[O-])c1 (centres undefined),"inconclusive: 20 µM [inhibitor, partial curve]"
9,Cc1ccc(C(=O)c2cn(Cc3ccccc3)c3c(F)cc(F)cc3c2=O)cc1,"inconclusive: 39.8 µM [inhibitor, single point]"
10,CCOc1cc(C(c2c(C)[nH][nH]c2=O)c2c(C)[nH][nH]c2=O)ccc1OS(=O)(=O)c1ccccc1,"inconclusive: 28.2 µM [inhibitor, partial curve]"
11,COc1ccc(/C(N)=N/OC(=O)Cc2cccs2)cc1OC,"inconclusive: 25.1 µM [inhibitor, single point]"
12,Cc1nn(CC(O)CN2c3ccccc3Sc3ccccc32)c(C)c1Br (centres undefined),"inconclusive: 39.8 µM [inhibitor, single point]"
13,O=C1C=C(NNC(=O)c2ccccc2Br)CCC1,inactive
14,COc1ccc(C(=O)CSC#N)cc1OC,active: 15.8 µM
15,O=[N+]([O-])c1cccc(N=Cc2sc3ccccc3c2O)c1,"inconclusive: 1 µM [inhibitor, partial curve]"
16,COc1ccc(NC(=O)CN2C(=O)C(=O)c3ccccc32)c(OC)c1,"inconclusive: 20 µM [inhibitor, partial curve]"
17,CCCN(CCC)S(=O)(=O)c1ccc(C(=O)N2CCCc3ccccc32)cc1,"inconclusive: 31.6 µM [inhibitor, single point]"
18,O=C(Nc1ccc2c(c1)OCO2)c1sc2cc(Cl)ccc2c1Cl,"inconclusive: 0.794 µM [inhibitor, full curve]"
19,Cc1c(C(=O)Nc2ccccc2F)sc2nc3n(c(=O)c12)CCC3,inactive
20,Cc1ccc(S(=O)(=O)c2nnn3c2nc(NC2CCCCC2)c2sccc23)cc1C,inactive
21,N#Cc1c(Nc2cccc(F)c2)sc2c(O)cc(=O)[nH]c12,"inconclusive: 15.8 µM [inhibitor, partial curve]"
22,Cc1csc(NC(=O)Nc2ccccc2[N+](=O)[O-])n1,"inconclusive: 28.2 µM [inhibitor, single point]"
23,COc1ccc(Cl)cc1C(=O)NNC1CC(=O)N(Cc2ccc(Cl)cc2)C1=O (centres undefined),"inconclusive: 39.8 µM [inhibitor, single point]"
